# About 2,200 (0.71%) of roughly 310,000 compounds showed an effect of 50% or more. Effects have a minus sign here. The list shows a part of the results.
# Target: human ether-à-go-go-related gene (hERG) potassium channel (human, UniProt Q12809)
# Assay: primary screen, population patch clamp on CHO cells stably expressing hERG
# Chain of human ether-à-go-go-related gene (hERG) potassium channel (Q12809 whole entry, looked up): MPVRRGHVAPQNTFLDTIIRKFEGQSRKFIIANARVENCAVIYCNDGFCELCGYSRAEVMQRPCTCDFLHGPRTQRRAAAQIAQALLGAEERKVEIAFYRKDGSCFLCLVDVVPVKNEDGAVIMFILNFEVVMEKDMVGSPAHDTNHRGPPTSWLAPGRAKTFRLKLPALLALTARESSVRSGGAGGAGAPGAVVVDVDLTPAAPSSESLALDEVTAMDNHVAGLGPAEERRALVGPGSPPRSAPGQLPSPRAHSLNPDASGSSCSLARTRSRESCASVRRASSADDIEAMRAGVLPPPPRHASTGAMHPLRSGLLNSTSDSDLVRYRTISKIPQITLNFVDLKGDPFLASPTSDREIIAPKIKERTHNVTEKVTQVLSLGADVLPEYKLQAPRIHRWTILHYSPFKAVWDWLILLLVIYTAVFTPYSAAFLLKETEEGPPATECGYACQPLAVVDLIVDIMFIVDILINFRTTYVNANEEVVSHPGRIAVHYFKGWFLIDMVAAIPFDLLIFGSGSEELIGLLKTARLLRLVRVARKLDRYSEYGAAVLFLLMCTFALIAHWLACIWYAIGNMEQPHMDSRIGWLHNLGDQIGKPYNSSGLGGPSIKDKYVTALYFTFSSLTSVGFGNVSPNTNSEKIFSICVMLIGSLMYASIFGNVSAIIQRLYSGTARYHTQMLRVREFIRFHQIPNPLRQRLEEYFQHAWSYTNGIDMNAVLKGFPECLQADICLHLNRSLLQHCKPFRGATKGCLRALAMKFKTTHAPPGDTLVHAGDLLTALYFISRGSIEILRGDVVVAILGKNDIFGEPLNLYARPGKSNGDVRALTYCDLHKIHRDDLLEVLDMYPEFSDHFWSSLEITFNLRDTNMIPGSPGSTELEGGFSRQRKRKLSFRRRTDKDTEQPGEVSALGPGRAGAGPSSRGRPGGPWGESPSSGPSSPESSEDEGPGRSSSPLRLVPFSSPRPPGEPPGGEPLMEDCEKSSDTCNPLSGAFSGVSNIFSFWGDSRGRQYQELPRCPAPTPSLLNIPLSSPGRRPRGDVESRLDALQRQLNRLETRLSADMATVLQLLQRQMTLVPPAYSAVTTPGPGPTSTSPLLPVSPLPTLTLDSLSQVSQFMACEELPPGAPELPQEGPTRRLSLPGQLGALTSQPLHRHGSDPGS
row,Compound,"hERG current change (%, negative = inhibition) at 1uM [%]"
1,CC1CCN(CCCNC(=O)C2CCC(CNS(=O)(=O)c3ccccc3)CC2)CC1 (stereo not shown),16.3
2,COc1ccccc1C(=O)OCC(=O)NC1CCCC1,5.17
3,Brc1ccc(/C=N/N2CCN(C3c4ccccc4-c4ccccc43)CC2)s1,11.3
4,CCOP(=O)(OCC)C(Nc1ccc(F)cc1)c1ccccc1 (stereo not shown),9.43
5,COc1ccc(OC)c(NC(=O)CCN2CCCC(C)C2)c1.Cl (stereo not shown),3.46
6,CC/C(Cc1ccccc1)=N/NC(=O)c1cccc(Br)c1,17.1
7,O=C(CN1C(=O)NC2(CCCCC2)C1=O)NC1CCCc2ccccc21 (stereo not shown),0.155
8,CCNC(=S)N(CCc1c(C)[nH]c2ccc(C)cc12)Cc1cc(OC)c(OC)c(OC)c1,6.34
9,CC(C)(C)C(=O)CC1(O)C(=O)N(Cc2ccccc2)c2ccccc21 (stereo not shown),8.55
10,Cc1cc(C)cc(N(CC(=O)NC(C)(C)C)C(=O)CNC(=O)c2cccs2)c1,11.2
11,O=C(O)CCc1ccc(-c2ccccc2)n1-c1cccc(O)c1,-0.825
12,NC(N)=NS(=O)(=O)c1ccc(NC(=S)NC(=O)/C=C/c2ccccc2)cc1,13.6
13,Cn1c(N2CCCC2)nc2c1c(=O)n(Cc1ccc(F)cc1)c(=O)n2C,9.89
14,COC(=O)c1ccccc1C(=O)N1CCCC(C(=O)c2cc(F)ccc2F)C1 (stereo not shown),10
15,O=C(O)CN1C(=O)c2cccc3c(Br)ccc1c23,15.9
16,Cn1c(=O)c(=O)n(C)c2cc(S(=O)(=O)CCC(=O)N3CCOCC3)ccc21,7.72
17,O=C(COc1ccccc1)Nc1ccccc1NS(=O)(=O)c1cccs1,1.15
18,CCc1c(SCCC(=O)O)nc2ccccc2c1C,16.2
19,CCO.CN1CC=C2C(C#N)=C(N)C(C#N)(C#N)[C@H](c3ccoc3)[C@H]2C1,6.1
20,CN1CCN(CCC(=O)N/N=C/c2cc([N+](=O)[O-])ccc2OC(F)F)CC1,12.7
21,COc1ccccc1CCNC(=O)C(C)n1nc(C)c2c(C)n(-c3ccccc3)nc2c1=O (stereo not shown),-7.56
22,CCSc1nc2sc3c(c2c(=O)n1-c1ccccc1)CCN(C(C)C)C3,11.9

row,Compound,"hERG current change (%, negative = inhibition) at 1uM [%]"
1,COCC(=O)N1CCCC(C(=O)c2ccc(-c3ccccc3)cc2)C1 (stereo not shown),0.927
2,O=C(CSc1nc2sc3c(c2c(=O)[nH]1)CCCC3)NCCO,9.66
3,O=C(NCCCn1ccnc1)c1cc(-c2ccncc2)nc2ccccc12,-27.7
4,Cc1ccc(S(=O)(=O)NC(=O)NC(C)(C)C)cc1,-11.6
5,Cc1c(NC(=O)CS(=O)(=O)c2ccccc2)c(=O)n(-c2ccccc2)n1C,13.4
6,CC(C)(C)Cc1nnc(NC(=O)c2cc(-c3ccccc3)nc3ccccc23)s1,10
7,COc1ccc(-c2cc3c(=O)n(CC(=O)Nc4ccc(Cl)cc4)nc(C)n3n2)cc1,18.3
8,Cc1ccc(OCC(=O)N2CCN(C3CCC(c4ccccc4)CC3)CC2)cc1.O=C(O)C(=O)O (stereo not shown),-14.7
9,O=C(Nc1cc(Sc2ccccn2)cc([N+](=O)[O-])c1)c1ccc(Cl)cc1,5.55
10,CCOC(=O)C1=C(CN2CCc3ccccc32)NC(=O)NC1c1cc(C)ccc1C (stereo not shown),2.87
11,Cn1c(CNC(=O)c2cccs2)nnc1SCC(=O)Nc1ccc(Cl)cc1,0.86
12,CC(C)CCOc1ccc(CO[C@@H]2[C@H]3OC(C)(C)O[C@H]3O[C@@H]2C(O)CO)cc1 (stereo partly shown),12.2
13,Cc1ccc(OCc2nnc(SCC(=O)NC3CCCCC3)n2C)cc1,-13.5
14,O=C(COC(=O)/C=C/c1ccc(OC(F)F)cc1)NC(=O)NCc1ccccc1,8.05
15,NC(=O)Cc1c[nH]c2cccc(O)c12,-2.1
16,COCCNc1nc2ccccc2n2cnnc12,16.2
17,COc1ccc(NC(=O)Cc2coc3cc(C)ccc23)cc1S(=O)(=O)N1CCOCC1,-3.64
18,CC(C)Sc1oc(-c2ccco2)nc1S(=O)(=O)c1ccccc1,10.1
19,C=CCSc1nc(=O)n2ccc(C)cc2n1,7.84
20,COc1cc(C2C3C(C)N(C)C(=O)N(C)C3N(C)C(=O)N2C)ccc1O (stereo not shown),15.4
21,Cc1ccc(C2NC(=S)NC3=C2C(=O)CC(C)(C)C3)cc1 (stereo not shown),14.3
22,COc1cnc(-c2ccccn2)nc1N(C)c1ccccc1,12.6

row,Compound,"hERG current change (%, negative = inhibition) at 1uM [%]"
1,COC(=O)/C(=C\Nc1ccc(Cl)cc1Cl)NC(=O)c1ccc(OC)cc1,7.76
2,CN(CCO)C(=O)c1cccc2c1-c1ccccc1C2=O,7.44
3,O=C(CNCc1ccccc1)Nc1ccccc1-c1ccccc1,-7.56
4,OCCN1CCN(CC(O)C(F)(F)F)CC1 (stereo not shown),6.56
5,Cc1nnc(NC(=O)CSc2nnc(-c3ccco3)n2C(C)C)s1,10.5
6,COc1ccc(C(CNC(=O)Cc2cc(OC)c(OC)c(OC)c2)N2CCCC2)cc1 (stereo not shown),5.69
7,O=C(O)CCC(=O)NNC(=O)c1ccc(-c2ccccc2)cc1,9.22
8,CC(C)(C)NC(=O)NC(=O)COC(=O)CNC(=O)c1cccc(F)c1,10.6
9,O=C(COc1ccccc1)Nc1cc2c3c(c1)CC(=O)N3CCC2,-4.17
10,Cc1ccc(NC(=O)CNCc2ccccc2)cc1Br.Cl,-2.19
11,CC(C)CC1(C(=O)O)NC(c2ccccc2O)C2C(=O)N(C(C)C)C(=O)C21 (stereo not shown),16.2
12,CC(CCn1cccn1)NC(=O)CCc1nnc(C2CCCCC2)o1 (stereo not shown),11.5
13,COc1cc2nc(CN3CCN(S(=O)(=O)c4c(F)cccc4F)CC3)[nH]c(=O)c2cc1OC,-7.64
14,CCOc1ccc(NS(=O)(=O)c2cc3c4c(c2)C(C)C(=O)N4CCC3)cc1 (stereo not shown),13.7
15,O=C(O)Cc1ccc(NC(=O)c2ccc(NC(=O)c3ccco3)cc2)cc1,13
16,CC(=O)Nc1nc(C)c(CCCOc2ccc([N+](=O)[O-])cc2)c(=O)[nH]1,6.01
17,O=C(NC(N1CCCC1)C(Cl)(Cl)Cl)c1ccccc1 (stereo not shown),13.5
18,Cc1ccc(NC(=O)CCNS(=O)(=O)c2ccc3c(c2)CCC(=O)N3)cc1C,26.8
19,COc1ccc(N=CC2=C(O)CCCC2=O)cc1,3.77
20,CCNc1nc(SC(C)C(=O)Nc2ccccc2)nc(N(C)C)n1 (stereo not shown),-0.96
21,COC(=O)c1cccc(C23CC4(C2)[C@H](CN(Cc2ccc(-c5ccccc5)cc2)[C@@H]4c2ccccc2)C3c2ccc(C(F)(F)F)cc2)c1 (stereo partly shown),16
22,Cc1cccc(OCCOC(=O)C2CCN(S(=O)(=O)c3cccs3)CC2)c1,6.19

row,Compound,"hERG current change (%, negative = inhibition) at 1uM [%]"
1,S=C(Nc1ccccc1)Nc1ccc(OCc2ccccc2)cc1,3.02
2,COc1ccc(NC(=O)CN2CCC(C(N)=O)(N3CCCCC3)CC2)cc1,3.3
3,C[C@@H](NC(=O)c1nc[nH]c1C(=O)N1CCN(c2ccccc2)CC1)c1ccccc1,14.8
4,CCN(CC)CCN(C)Cc1nc(C(c2ccccc2)c2ccccc2)no1,-34.5
5,Cc1ccc(Cn2cc(C=O)c(-c3ccc(C)cc3)n2)cc1,14.7
6,COc1ccccc1CN(C)C(=O)c1ccc(COc2ccccc2)cc1,11.5
7,Cc1nc2sc(-c3ccccc3)cc2c(=O)[nH]1,14.8
8,COc1ccccc1-c1ccc(=O)n(CC(=O)NCc2ccc3c(c2)OCO3)n1,2.69
9,CCN(CC)C(=S)SCC(=O)Nc1nc(=O)c2ccccc2s1,4.18
10,COC(=O)c1[nH]c2cccc(OC)c2c1NC(=O)CN(C)CC1OCCO1,-4.76
11,Cc1nc(NCCc2ccc(F)cc2)c2nnn(Cc3ccccc3)c2n1,7.92
12,CCOc1ccc(-n2nc3c(Cl)nnc(C)c3c2C)cc1,7.75
13,CCOc1ccc(OCCNCc2ccc(OC(C)C(=O)N(C)C)c(OCC)c2)cc1.O=C(O)C(=O)O (stereo not shown),6.58
14,CCc1cccc2c(C(=O)CSc3nncn3-c3ccccc3OC)c[nH]c12,-6.68
15,CCOc1cc(C(=S)N2CCCC2)ccc1O,13.4
16,O=P(c1cccs1)(c1cccs1)c1cccs1,-4.99
17,CCOc1ccccc1/C=N/NC(=O)Cc1csc(Nc2cccc(C(F)(F)F)c2)n1,0.968
18,Cc1ccc(S(=O)(=O)N/N=C/c2ccc(OCC(=O)N3CCOCC3)cc2)cc1,14.7
19,CC(C)N(Cc1nc(-c2ccccc2)no1)C(=O)CCCN1C(=O)c2ccccc2C1=O,-6.95
20,CN(CC(=O)NCc1cccnc1)S(=O)(=O)c1ccc(F)cc1,14.6
21,CCc1noc(N)c1C(=O)Nc1ccc(Cl)cc1,6.37
22,COC(=O)c1ccccc1OCC(=O)NC1CCCCC1,3.56
